Laboratory results published in a collection of fitness landscapes (doi:10.1016/j.celrep.2020.107928).
Whole data set: some 81,000 sequences, median “one-hybrid fitness for binding parS DNA” near -0.17, cut for the highest 2% near 0.51. Some of the results follow.

B1: Caulobacter ParB omega fusion; a variant is named by its letters at X, in order, B8GW30 (parent)
chain: MESVVVGEPGMSEGRRGLGRGLSALLGEVDAAPAQAPGEQLGGSREAPIEILQRNPDQPRRTFREEDLEDLSNSIREKGVLQPILVRPSPDTAGEYQIVAGERAWRAAQRAGLKTVPIMVRELDDLAVLEIGIIENVQRADLNVLEEALSYKVLMEKFERTQENIAQTIGKSXSHVANXMRLLXLPDEVQSYLVSGELTAXHARAIAAAADPVALAKQIIEGGLSVRETEALARKAPNLSAGKSKGGRPPRVKDTDTQALESDLSSVLGLDVSIDHRGSTGTLTITYATLEQLDDLCNRLTRGI

Variants of: B1
Assay: one-hybrid fitness for binding parS DNA (scaled: cognate 1, non-cognate 0); higher = stronger binding
Details: with parS DNA site
Outline: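 Caulobacter ParB libraries with four specificity codons randomised were screened by bacterial one-hybrid selection in the E. coli USO strain, using a HIS3 reporter whose site lies 19 bp from the promoter. Selection ran for 48 hours at 37°C on M9 lacking histidine, with 0.1 mM IPTG and 5 mM 3-AT. Plasmids were Illumina-sequenced before and after selection, three replicate libraries were pooled, and variants with under 10 reads were dropped. Fitness is the log change in each variant's read ratio to wild type, rescaled against the cognate and non-cognate sites.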

one-hybrid fitness for binding parS DNA, 0.412:
RSWN

one-hybrid fitness for binding parS DNA, 0.846:
RSLT

one-hybrid fitness for binding parS DNA, 0.37:
HRGS

one-hybrid fitness for binding parS DNA, 0.925:
RYAC

one-hybrid fitness for binding parS DNA, 0.279:
RIEN

one-hybrid fitness for binding parS DNA, 0.554:
RQEA

one-hybrid fitness for binding parS DNA, 0.851:
RVRC

one-hybrid fitness for binding parS DNA, 0.246:
RISW

one-hybrid fitness for binding parS DNA, 0.28:
FGLE

one-hybrid fitness for binding parS DNA, 0.927:
RHQS

one-hybrid fitness for binding parS DNA, 0.92:
RVST

one-hybrid fitness for binding parS DNA, 0.332:
FCIS

one-hybrid fitness for binding parS DNA, ≤ 0.2:
CWSG
WQEV
EYLT
TYNP
NMWR
VEIG
IPQG
PLLF
TDVV
ALRH
FEMS
NPMM
QLTS
AKKT
IFFR
FQTR
GMFG
SNEV
LNYC
LGIS
IHNS
AYKT
NEQR
HPCG
KHYV
LPEY
EDLC
QGKS
CRQA
HACA
PYLM
TKRW
ICLF
QCDG
RWYV
EPGL
YKLV
RQDL
SLGY
DMGT
WPAF
FLQS
LARV
RRQK
KPYR
QSDY
PFNA
ACNS
SAKI
QATH
PIYG
VSSW
PNQG
MISC
AGCP
TVVG
TQLY
GRVW
LGVT
IASH
PVCQ
GQYT
SKTR
YQTT
PAVS
NTHR
VNSE
TPWW
SNKN
TIDR
ALNG
SIAG
LMLT
FLFG
NRWR
DTFG
KAKG
DGRL
FSRD
VSCC
NFLG
QTEI
SFGH
CGTS
PHCT
LFAC
TVLY
LLMQ
HQAR
KRPG
DPQC
TNHL
FQYT
CYMC
KNRD
FWGS
NISR
ISSC
VGQL
YWPS
QMFR
VADL
AQPG
IITT
IVFS
HRQA
TRHR
RCPI
TLVQ
CWCS
SKFR
SDFY
EKDT
PNLC
QVVQ
GLYC
VISI
MTMR
DVSF
KVTT
PLPY
GPQS
GCMG
WREV
RGHV
CQEC
DWRG
CLYM
LMWT
VFEC
KKVC
SGQC
EAMS
LCNW
EPHL
RHPL
REFP
YPLN
ETSR
CLVR
VPLF
NHLC
IAAS
SAPR
PNNN
TSEP
LNPI
GAPS
SNLR
SDSW
EPRL
DMTL
PKWF
NVLG
VTRC
KREC
DPTQ
SGSM
YGAE
VQYA
QQGS
CHWR
NLCF
VRMR
DHTV
THPI
DVWG
LGVA
SSPH
GPRL
IYMR
ARQG
FYMA
GKKY
GNNS
TCQG
SFQY
YGAA
SHPA
SQLG
PHLM
SRTN
QPSC
